Measurements as given in patent publication US9650358B2 (priority 2013, dated 2017).

What follows are molecules tested on H929 cells (assay: cells). Settings: Homo sapiens, NCI-H929, 24 h, read-out: H929 viability EC50.

Row | Structure (SMILES) | EC50 [nM]
1 | Fc1cccc(Cn2cnc3ccc(-c4cc(NCc5c[nH]cn5)ncc4Cl)cc32)c1 [Example 50, 5-chloro-4-[1-(3-fluorobenzyl)-1H-benzimidazol-6-yl]-N-(1H-imidazol-4-ylmethyl)pyridin-2-amine] | 1800
2 | CC(Cc1cnccn1)Nc1cc(-c2ccc3ncn(Cc4cccc(F)c4)c3c2)c(Cl)cn1 (stereo not drawn) [Example 52, 5-chloro-4-[1-(3-fluorobenzyl)-1H-benzimidazol-6-yl]-N-[1-(pyrazin-2-yl)propan-2-yl]pyridin-2-amine] | 1100
3 | CN(C)CCCCNc1cc(-c2ccc3ncn(Cc4cccc(F)c4)c3c2)c(Cl)cn1 [Example 55, N′-{5-chloro-4-[1-(3-fluorobenzyl)-1H-benzimidazol-6-yl]pyridin-2-yl}-N,N-dimethylbutane-1,4-diamine] | 860
4 | CN1CCC(CNc2cc(-c3ccc4ncn(Cc5cccc(F)c5)c4c3)c(Cl)cn2)CC1 [Example 56, 5-chloro-4-[1-(3-fluorobenzyl)-1H-benzimidazol-6-yl]-N-[(1-methylpiperidin-4-yl)methyl]pyridin-2-amine] | 440
5 | Fc1cccc(Cn2cnc3ccc(-c4cc(NCCc5ccccn5)ncc4Cl)cc32)c1 [Example 58, 5-chloro-4-[1-(3-fluorobenzyl)-1H-benzimidazol-6-yl]-N-[2-(pyridin-2-yl)ethyl]pyridin-2-amine] | 3100
6 | CC(C)(O)CCNc1cc(-c2ccc3ncn(Cc4cccc(F)c4)c3c2)c(Cl)cn1 [Example 59, 4-({5-chloro-4-[1-(3-fluorobenzyl)-1H-benzimidazol-6-yl]pyridin-2-yl}amino)-2-methylbutan-2-ol] | 840
7 | Fc1cccc(Cn2cnc3ccc(-c4cc(NCCc5ccncc5)ncc4Cl)cc32)c1 [Example 62, 5-chloro-4-[1-(3-fluorobenzyl)-1H-benzimidazol-6-yl]-N-[2-(pyridin-4-yl)ethyl]pyridin-2-amine] | 3200
8 | Fc1cccc(Cn2cnc3ccc(-c4cc(NCCNc5ccccc5)ncc4Cl)cc32)c1 [Example 66, N-{5-chloro-4-[1-(3-fluorobenzyl)-1H-benzimidazol-6-yl]pyridin-2-yl}-N′-phenylethane-1,2-diamine] | 2600
9 | CN(C)CC(C)(C)CNc1cc(-c2ccc3ncn(Cc4cccc(F)c4)c3c2)c(Cl)cn1 [Example 67, N′-{5-chloro-4-[1-(3-fluorobenzyl)-1H-benzimidazol-6-yl]pyridin-2-yl}-N,N,2,2-tetramethylpropane-1,3-diamine] | 3000
10 | OCCNc1cc(-c2ccc3ncn(Cc4cccc(F)c4)c3c2)c(Cl)cn1 [Example 68, 2-({5-chloro-4-[1-(3-fluorobenzyl)-1H-benzimidazol-6-yl]pyridin-2-yl}amino)ethanol] | 620
11 | Nc1ccc(CCNc2cc(-c3ccc4ncn(Cc5cccc(F)c5)c4c3)c(Cl)cn2)cc1 [Example 75, N-[2-(4-aminophenyl)ethyl]-5-chloro-4-[1-(3-fluorobenzyl)-1H-benzimidazol-6-yl]pyridin-2-amine] | 1700
12 | CC(C)(CN)CNc1cc(-c2ccc3ncn(Cc4cccc(F)c4)c3c2)c(Cl)cn1 [Example 76, N-{5-chloro-4-[1-(3-fluorobenzyl)-1H-benzimidazol-6-yl]pyridin-2-yl}-2,2-dimethylpropane-1,3-diamine] | 1600
13 | NCc1ccc(CNc2cc(-c3ccc4ncn(Cc5cccc(F)c5)c4c3)c(Cl)cn2)cc1 [Example 78, N-[4-(aminomethyl)benzyl]-5-chloro-4-[1-(3-fluorobenzyl)-1H-benzimidazol-6-yl]pyridin-2-amine] | 9300
14 | CC(C)(O)CNc1cc(-c2ccc3ncn(Cc4cccc(F)c4)c3c2)c(Cl)cn1 [Example 79, 1-({5-chloro-4-[1-(3-fluorobenzyl)-1H-benzimidazol-6-yl]pyridin-2-yl}amino)-2-methylpropan-2-ol] | 720
15 | NCC(O)CNc1cc(-c2ccc3ncn(Cc4cccc(F)c4)c3c2)c(Cl)cn1 (stereo not drawn) [Example 80, 1-amino-3-({5-chloro-4-[1-(3-fluorobenzyl)-1H-benzimidazol-6-yl]pyridin-2-yl}amino)propan-2-ol] | 3600
16 | Fc1cccc(Cn2cnc3ccc(-c4cc(NCCNc5ccccn5)ncc4Cl)cc32)c1 [Example 81, N-{5-chloro-4-[1-(3-fluorobenzyl)-1H-benzimidazol-6-yl]pyridin-2-yl}-N′-(pyridin-2-yl)ethane-1,2-diamine] | 1600
17 | Cc1nnc(Cn2cnc3ccc(-c4cc(NC(=O)[C@@H]5CCCNC5)ncc4Cl)cc32)s1 [Example 89, (3R)—N-(5-chloro-4-{1-[(5-methyl-1,3,4-thiadiazol-2-yl)methyl]-1H-benzimidazol-6-yl}pyridin-2-yl)piperidine-3-carboxamide] | 2400
18 | O=C(Nc1cc(-c2ccc3ncn(CCc4cccnc4)c3c2)c(Cl)cn1)[C@@H]1CCCNC1 [Example 90, (3R)—N-(5-chloro-4-{1-[2-(pyridin-3-yl)ethyl]-1H-benzimidazol-6-yl}pyridin-2-yl)piperidine-3-carboxamide] | 1700
19 | CNCCCCNc1cc(-c2ccc3ncn(Cc4cccc(F)c4)c3c2)c(Cl)cn1 [Example 93, N-{5-chloro-4-[1-(3-fluorobenzyl)-1H-benzimidazol-6-yl]pyridin-2-yl}-N′-methylbutane-1,4-diamine] | 530
20 | Fc1cccc(Cn2cnc3ccc(-c4cc(NCCC5CCNCC5)ncc4Cl)cc32)c1 [Example 95, 5-chloro-4-[1-(3-fluorobenzyl)-1H-benzimidazol-6-yl]-N-[2-(piperidin-4-yl)ethyl]pyridin-2-amine] | 610
21 | Fc1cccc(Cn2cnc3ccc(-c4cc(NCCC5CCCNC5)ncc4Cl)cc32)c1 (stereo not drawn) [Example 96, 5-chloro-4-[1-(3-fluorobenzyl)-1H-benzimidazol-6-yl]-N-[2-(piperidin-3-yl)ethyl]pyridin-2-amine] | 420
22 | Fc1cccc(Cn2cnc3ccc(-c4cc(NCCC5CCN5)ncc4Cl)cc32)c1 (stereo not drawn) [Example 100, N-[2-(azetidin-2-yl)ethyl]-5-chloro-4-[1-(3-fluorobenzyl)-1H-benzimidazol-6-yl]pyridin-2-amine] | 5000
23 | Fc1cccc(Cn2cnc3ccc(-c4cc(N[C@@H]5CCC[C@H]6CCNC[C@H]65)ncc4Cl)cc32)c1 [Example 101, (4aS,8R,8aS)—N-{5-chloro-4-[1-(3-fluorobenzyl)-1H-benzimidazol-6-yl]pyridin-2-yl}decahydroisoquinolin-8-amine] | 3300
24 | Fc1cccc(Cn2cnc3ccc(-c4cc(NCCC5CCCN5)ncc4Cl)cc32)c1 (stereo not drawn) [Example 102, 5-chloro-4-[1-(3-fluorobenzyl)-1H-benzimidazol-6-yl]-N-[2-(pyrrolidin-2-yl)ethyl]pyridin-2-amine] | 3100
25 | Fc1cccc(Cn2cnc3ccc(-c4cc(NC5CCC56CCNCC6)ncc4Cl)cc32)c1 (stereo not drawn) [Example 106, N-{5-chloro-4-[1-(3-fluorobenzyl)-1H-benzimidazol-6-yl]pyridin-2-yl}-7-azaspiro[3.5]nonan-1-amine] | 1700
26 | Fc1cccc(Cn2cnc3ccc(-c4cc(NCC5CNCC5F)ncc4Cl)cc32)c1 (stereo not drawn) [Example 108, 5-chloro-4-[1-(3-fluorobenzyl)-1H-benzimidazol-6-yl]-N-[(4-fluoropyrrolidin-3-yl)methyl]pyridin-2-amine] | 1700
27 | O=C(Nc1cc(-c2ccc3nnn(Cc4cccc(F)c4)c3c2)c(Cl)cn1)[C@@H]1CCCNC1 [Example 110, (3R)—N-{5-chloro-4-[1-(3-fluorobenzyl)-1H-benzotriazol-6-yl]pyridin-2-yl}piperidine-3-carboxamide] | 460
